Results: the supplement of paper PMC3334620
In all, about 33,000 sequences were measured (“E-score (-0.5 to 0.5)”: median about -0.011, highest 2% from about 0.28 on). Some of the results follow.

target: T1, Gcr1 (UniProt P07261); assay: PBM E-score (8-mer binding enrichment) (E-score (-0.5 to 0.5)); higher = stronger / more preferred TF binding; most listed sequences are background and not binding sites; conditions: protein concentration: 100 nM; construct: GST-full length
T1 sequence: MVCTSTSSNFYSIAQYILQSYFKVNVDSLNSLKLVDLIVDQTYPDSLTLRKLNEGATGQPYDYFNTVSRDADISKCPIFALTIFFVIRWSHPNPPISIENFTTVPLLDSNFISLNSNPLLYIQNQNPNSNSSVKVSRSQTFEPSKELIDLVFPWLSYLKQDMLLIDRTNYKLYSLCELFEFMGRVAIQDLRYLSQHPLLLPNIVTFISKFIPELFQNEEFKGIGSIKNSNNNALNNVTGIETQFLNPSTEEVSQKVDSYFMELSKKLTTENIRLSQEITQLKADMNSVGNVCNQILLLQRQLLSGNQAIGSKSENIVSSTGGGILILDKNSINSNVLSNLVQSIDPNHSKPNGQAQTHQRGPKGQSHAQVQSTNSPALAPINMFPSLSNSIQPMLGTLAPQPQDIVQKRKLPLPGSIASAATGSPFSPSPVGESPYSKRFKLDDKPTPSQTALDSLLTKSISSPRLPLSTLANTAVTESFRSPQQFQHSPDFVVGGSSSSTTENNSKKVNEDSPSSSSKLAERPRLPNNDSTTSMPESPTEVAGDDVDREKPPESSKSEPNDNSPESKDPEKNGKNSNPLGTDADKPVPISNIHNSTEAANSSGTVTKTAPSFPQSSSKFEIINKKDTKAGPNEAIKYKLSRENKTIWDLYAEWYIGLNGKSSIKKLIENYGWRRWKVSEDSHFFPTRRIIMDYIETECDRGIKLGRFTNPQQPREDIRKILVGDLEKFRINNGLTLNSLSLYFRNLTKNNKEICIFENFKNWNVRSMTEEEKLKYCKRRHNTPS
Method in brief: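 The E-score, a modified Wilcoxon-Mann-Whitney statistic, was computed by the Universal PBM Analysis Suite for every ungapped eight-base word pooled with its reverse complement. Scans behind it were normalised with masliner after bound GST-tagged yeast transcription factors were detected with fluorescent anti-GST. The proteins, at about 100-200 nM, had been applied to universal all-10-mer Agilent arrays made double-stranded by primer extension.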

Going from ATCCTGCG to CTTTGAGC, the “PBM E-score” value rises from -0.199 to -0.149.

First: AGTCGCCA
Second: CTCTTAAG
The “PBM E-score” value of the first is higher: 0.045 for the first, -0.0992 for the second.

First: ATCCCCGG
Second: CGAAGACC
The “PBM E-score” value of the first is higher: 0.124 for the first, 0.0336 for the second.

First: CATCGTCG
Second: ACTGCACA
The “PBM E-score” value of the first is higher: -0.0261 for the first, -0.211 for the second.

Going from ATGCCCAT to ACGCGGCG, the “PBM E-score” value rises from -0.0364 to 0.146.

First: GACGATCC
Second: ACCTTTCA
The “PBM E-score” value of the first is higher: -0.0984 for the first, -0.117 for the second.

Compared with AAGTGCCC, CTATGGGA is higher in “PBM E-score” value: -0.0109 for the first, 0.0373 for the second.

First: CTAATCTA
Second: CTGCTGAC
The “PBM E-score” value of the first is lower: -0.019 for the first, 0.0286 for the second.

Going from GAACACGC to ATCATAGC, the “PBM E-score” value falls from 0.0995 to -0.194.

Going from AGAACAGC to GAACTACC, the “PBM E-score” value rises from -0.0978 to -0.0513.

Compared with TGACGTCA, AAACCATG is higher in “PBM E-score” value: -0.0394 for the first, 0.0732 for the second.

Going from GTCCTAGA to CTCGGAGA, the “PBM E-score” value rises from -0.0661 to 0.00453.

Going from AAATCGGG to ATATCTAA, the “PBM E-score” value falls from 0.212 to -0.054.

First: TCTTAAGA
Second: GATACAGC
The “PBM E-score” value of the first is lower: 0.09 for the first, 0.16 for the second.

First: CTGATTGC
Second: ACGCTCAC
The “PBM E-score” value of the first is higher: 0.0905 for the first, 0.016 for the second.

Going from GTCAGATA to AACGTGTG, the “PBM E-score” value falls from -0.0446 to -0.222.

Going from ATGCTAAG to AAGAGCCT, the “PBM E-score” value falls from 0.0539 to -0.222.

Compared with ATATTGTC, CAGACACG is higher in “PBM E-score” value: -0.112 for the first, 0.0199 for the second.

Going from GCCCAACC to CTCCAATC, the “PBM E-score” value falls from 0.0648 to 0.0227.

Compared with AGTTGCAA, AAGACTCA is lower in “PBM E-score” value: -0.105 for the first, -0.226 for the second.

Going from AGTAGCAT to AAACTTGA, the “PBM E-score” value rises from -0.0355 to 0.0895.

Compared with ACGCACTC, AAACAGTT is higher in “PBM E-score” value: 0.0635 for the first, 0.134 for the second.

Going from GATTGGCC to GCTACAGC, the “PBM E-score” value rises from -0.151 to 0.121.

First: ACTGCCGA
Second: CACACAAC
The “PBM E-score” value of the first is higher: 0.0702 for the first, -0.0691 for the second.

Compared with ATGCTGCA, ACTTTTCT is lower in “PBM E-score” value: 0.0246 for the first, -0.0435 for the second.

Compared with GCCCCCCA, CGAGGTAA is lower in “PBM E-score” value: 0.147 for the first, -0.261 for the second.

First: TCCGGCAA
Second: CTTAGGTA
The “PBM E-score” value of the first is lower: 0.139 for the first, 0.164 for the second.

Going from AGAGACCA to AACGACTA, the “PBM E-score” value falls from -0.11 to -0.201.

Going from AACCCGCT to ACTGAATA, the “PBM E-score” value falls from 0.0367 to -0.0291.

First: ATAAACAG
Second: CGGTTATC
The “PBM E-score” value of the first is higher: 0.102 for the first, -0.0703 for the second.

Compared with GGTAGATA, AATAATGG is higher in “PBM E-score” value: 0.00026 for the first, 0.161 for the second.

Compared with TAACTAGA, CAATCACG is lower in “PBM E-score” value: 0.136 for the first, -0.127 for the second.

Compared with TGTAAGAA, ACATACGC is higher in “PBM E-score” value: -0.0334 for the first, 0.0234 for the second.

Going from ATGATACA to AAATACTT, the “PBM E-score” value falls from 0.0457 to 0.0147.

Compared with GGCGTAAC, AGGTCCGC is lower in “PBM E-score” value: -0.0809 for the first, -0.177 for the second.

First: CGATCGCA
Second: ATGCAGGG
The “PBM E-score” value of the first is higher: 0.084 for the first, -0.14 for the second.

First: GGACCTGA
Second: AAAGCTAA
The “PBM E-score” value of the first is lower: -0.0485 for the first, -0.0138 for the second.

First: CAGTCGGG
Second: TACGCACA
The “PBM E-score” value of the first is higher: 0.0415 for the first, -0.106 for the second.

Compared with CCACTCGC, ACAAATAA is higher in “PBM E-score” value: -0.0702 for the first, 0.185 for the second.

Going from CGCTGGGC to CGACCGAC, the “PBM E-score” value rises from -0.0287 to 0.0935.

First: TGGGCGAA
Second: GAACCGGA
The “PBM E-score” value of the first is lower: -0.197 for the first, 0.183 for the second.

Compared with TATTCGGA, GAACGCAC is lower in “PBM E-score” value: 0.174 for the first, 0.0588 for the second.

Compared with ACGTCCTA, CAAAGACA is lower in “PBM E-score” value: 0.0954 for the first, -0.0364 for the second.
